In the supplement of paper PMC4723716:
± gives the uncertainty stated by the source. Whole data set: some 9,900 compounds, median “viability index relative to DMSO control” near 1, cut for the lowest 2% near 0.85. This is one part of the list.

System: Plasmodium falciparum NF54 stage V gametocytes
Assay: viability index relative to DMSO control (fraction); higher = less gametocyte killing
Settings: 2.5 µM, incubation time: 72 h
Summary of the method: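 In 1,536-well plates, 10 µl of serum-free medium holding P. falciparum NF54 stage V gametocytes (0.75% gametocytemia, 1.25% hematocrit) received compound at 2.5 µM for 72 hr at 37°C in low oxygen. After one to two hours with 3 µl of 2.5 µM MitoTracker Red CMXRos containing 0.13% saponin, red particles of 20–70 µm2 were counted in a single field per well. Viability index is reported as the particle count over the plate mean of wells treated with solvent only.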

[1] = library set: Broad Institute DOS

Structure (SMILES) | viability index [1] | viability index (library set: Broad Institute Blood Stage)
COc1ccc2c3c([C@H](CO)N(Cc4cc(OC)cc(OC)c4)C[C@]33CN(C3)C(=O)CN3CCOCC3)n(C)c2c1 | 0.942 ± 0.055 | 
COc1ccc2c3c([C@H](CO)NC[C@]33CN(C3)S(=O)(=O)c3ccc(C)cc3)n(C)c2c1 | 1.09 ± 0.086 | 
O=C(Nc1cccc(Cl)c1)N1C[C@H]2[C@@H](c3ccccc31)[C@@H](CO)N2Cc1cccnc1 | 1.06 ± 0.092 | 
CN(C)C(=O)c1cccc(-c2ccc([C@@H]3[C@@H](CO)N4CCCCN(CC5CCOCC5)C[C@H]34)cc2)c1 | 0.983 ± 0.086 | 
COc1ccc2c3c([nH]c2c1)[C@@H](CO)N(C[C@]31CCN(CC1)S(=O)(=O)c1ccccc1)C(C)=O | 1.05 ± 0.045 | 
Cc1noc(C)c1NC(=O)N(C)C[C@@H]1Oc2ccc(NC(=O)Cc3cn(C)c4ccccc34)cc2CC(=O)N([C@@H](C)CO)C[C@@H]1C | 0.979 ± 0.081 | 
COc1ccccc1C#Cc1ccc([C@H]2[C@@H](C#N)N(C(=O)C3CCCCC3)[C@H]2CO)cc1 |  | 0.345 ± 0.087
C[C@H](CO)N1C[C@H](C)[C@@H](CN(C)C(=O)Nc2ccccc2F)Oc2cc(Br)ccc2S1(=O)=O | 1.01 ± 0.02 | 
CC(=O)N1[C@H](CO)[C@H](c2ccc(-c3ccc(C#N)cc3)cc2)C12CN(C(=O)C1CC1)C2 | 1.09 ± 0.04 | 
COc1cccc(-c2ccc3c(c2)[C@H]2[C@H](CCN2C(=O)c2ccccc2F)[C@@H](CO)N3C)c1 | 0.897 ± 0.028 | 
CN1c2ccc(Br)cc2[C@@H]2[C@@H](CCN2S(=O)(=O)c2ccccc2F)[C@@H]1CO | 0.96 ± 0.062 | 
Cc1ccc(S(=O)(=O)NCC[C@H]2CC[C@H](NC(=O)c3cccnc3)[C@H](CO)O2)cc1 | 1.06 ± 0.085 | 
COCC#Cc1ccc([C@@H]2[C@H](C#N)N(C(=O)Cc3ccccc3)[C@H]2CO)cc1 | 1.12 ± 0.056 | 
CCc1csc(N2[C@@H](C#N)[C@@H](c3ccccc3C3=CCCC3)[C@@H]2CO)n1 | 1.11 ± 0.087 | 
Cc1noc(C)c1NC(=O)N(C)C[C@@H]1OCc2cnnn2CCCC(=O)N([C@H](C)CO)C[C@H]1C | 1.09 ± 0.046 | 
C[C@H](CO)N1C[C@H](C)[C@H](CN(C)C(=O)[C@@H](Cc2ccccc2)N(C)C)OCc2ccccc2-c2c(n(C)c3ccccc23)C1=O | 0.9723 ± 0.0017 | 
CCN(C[C@@H]1[C@@H](c2ccccc2)[C@H](CO)N1C(=O)COC)S(C)(=O)=O | 1.03 ± 0.11 | 
C[C@H](CO)N1C[C@H](C)[C@@H](CN(C)C(=O)Nc2cccc3ccccc23)Oc2c(NC(=O)C3CCOCC3)cccc2C1=O | 1.05 ± 0.08 | 
C[C@@H]1CN([C@@H](C)CO)C(=O)c2cc(NC(=O)Nc3ccccc3)ccc2O[C@H]1CN(C)Cc1ccccc1 | 0.979 ± 0.015 | 
CO[C@H]1CN(C)C(=O)c2cc(NC(C)=O)ccc2OC[C@@H](C)N(C(=O)Cc2ccccn2)C[C@@H]1C | 1.06 ± 0.017 | 
C[C@H]1CCCCO[C@@H](CN(C)C(=O)CCCN(C)C)[C@@H](C)CN([C@@H](C)CO)C(=O)c2cc(NS(=O)(=O)c3ccc(Cl)cc3)ccc2O1 | 1.11 ± 0.074 | 
COc1ccc(S(=O)(=O)Nc2ccc3c(c2)C(=O)N([C@@H](C)CO)C[C@H](C)[C@@H](CN(C)C(=O)Nc2c(C)noc2C)OCCCC[C@H](C)O3)cc1 | 1.07 ± 0.19 | 
O=C(c1ccc(F)cc1)N1C[C@@H]2N[C@H](C1)[C@H]2c1ccc(-c2cccnc2)cc1 | 1.08 ± 0.12 | 
CN(C[C@H]1N[C@@H](CO)[C@H]1c1ccc(-c2ccc(F)cc2)cc1)C(=O)C1CCC1 | 0.971 ± 0.025 | 
CCC(=O)N1[C@@H](CO)[C@@H](c2ccccc2)C12CN(C(=O)CN1CCOCC1)C2 | 1.159 ± 0.0063 | 

Structure (SMILES) | viability index [1] | viability index (library set: Broad Institute Blood Stage)
CCCNC(=O)N1CC(=O)N2[C@@H](CO)[C@H](c3ccc(-c4ccc(F)cc4)cc3)[C@@H]2C1 | 1.02 ± 0.1 | 
CN(C)C(=O)C[C@@H]1C[C@@H]2c3cc(NC(=O)Nc4ccc(F)cc4)ccc3O[C@@H]2[C@H](CO)O1 | 1.13 ± 0.093 | 
C[C@@H]1CN([C@H](C)CO)C(=O)c2cc(NC(=O)Nc3ccc4c(c3)OCO4)ccc2O[C@@H](C)CCCCO[C@@H]1CN(C)S(=O)(=O)c1ccccc1 | 1.07 ± 0.069 | 
CN1C[C@@H](O)COC[C@H]2O[C@@H](CC(=O)NC3CCCC3)CC[C@@H]21 | 1.1 ± 0.047 | 
COCC#Cc1ccc([C@H]2[C@H](CO)N3C(=O)CN(C(=O)C4CCCCC4)C[C@@H]23)cc1 | 1.07 ± 0.045 | 
C/C=C/c1ccc([C@@H]2[C@H]3CNC[C@@H]2N3C(=O)Nc2ccc(C(F)(F)F)cc2)cc1 | 1.05 ± 0.047 | 
O=C(C1CCCCC1)N1[C@H](CO)[C@@H]2c3ccccc3N(S(=O)(=O)c3ccccc3)C[C@@H]21 | 0.929 ± 0.18 | 
O=C(C[C@H]1C=C[C@@H](NC(=O)CCN2CCCCC2)[C@H](CO)O1)Nc1nccs1 | 0.934 ± 0.057 | 
O=C(C[C@@H]1CC[C@@H]2[C@H](COC[C@@H](O)CN2S(=O)(=O)c2cccc(Cl)c2)O1)N1CCOCC1 | 1.1 ± 0.099 | 
COc1ccc(C#Cc2cccc(-c3nc(C(=O)N4CCN(Cc5ccccc5)CC4)cc4c3[C@@H](CCO)N(S(=O)C(C)(C)C)C4)c2)cc1OC (stereo not given in full) | 0.826 ± 0.14 | 
CN(C)Cc1cn(CC[C@H]2CC[C@H](NC(=O)Cc3cccnc3)[C@@H](CO)O2)nn1 | 1.04 ± 0.049 | 
C[C@H](CO)N1C[C@H](C)[C@H](CN(C)C(=O)Nc2ccc(-c3ccccc3)cc2)OCc2ccccc2-c2ccccc2C1=O | 0.904 ± 0.031 | 
C(=C\c1ccc([C@H]2[C@@H]3CN(Cc4cocn4)C[C@H]2N3)cc1)/c1ccccc1 | 1.01 ± 0.041 | 
COc1ccc2c3c([nH]c2c1)[C@@H](CO)N(C[C@]31CCN(Cc2ccccc2Cl)CC1)S(=O)(=O)c1cn(C)cn1 | 0.955 ± 0.018 | 
CO[C@@H]1CN(C)C(=O)c2ccc(N)cc2OC[C@@H](C)NC[C@H]1C | 1.08 ± 0.066 | 
C[C@H]1CN([C@@H](C)CO)C(=O)c2cc(-c3ccncc3)cnc2O[C@H]1CN(C)C(=O)CN1CCOCC1 | 1.01 ± 0.053 | 
C[C@H](CO)N1C[C@H](C)[C@@H](CN(C)C(=O)Nc2cccc(Oc3ccccn3)c2)OCc2cnnn2CCCC1=O | 1.03 ± 0.047 | 
C/C=C/c1ccc([C@H]2[C@@H](CO)N(S(C)(=O)=O)[C@@H]2CN(C(C)=O)C(C)C)cc1 | 0.957 ± 0.06 | 
O=C(C[C@@H]1CC[C@@H]2[C@H](COC[C@@H](O)CN2Cc2ccc3c(c2)OCO3)O1)N1CCCCC1 | 0.99 ± 0.12 | 
COc1ccc2c3c([nH]c2c1)[C@@H](CO)N(C[C@]31CN(Cc2ccccc2)C1)S(=O)(=O)c1ccc(C)cc1 | 0.909 ± 0.098 | 
Cc1noc(C)c1NC(=O)Nc1ccc2c(c1)C(=O)N([C@@H](C)CO)C[C@H](C)[C@H](CN(C)S(=O)(=O)c1cccs1)OCCCC[C@@H](C)O2 | 1.09 ± 0.045 | 
C[C@@H](NC(=O)C[C@@H]1CC[C@@H]2[C@@H](COc3ccc(NS(=O)(=O)c4ccc(Cl)cc4)cc3C(=O)N2C)O1)c1ccccc1 | 1.07 ± 0.047 | 
CCCC#Cc1ccc2c(c1)O[C@@H](CN(C)Cc1ccccn1)[C@@H](C)CN([C@@H](C)CO)S2(=O)=O | 0.884 ± 0.045 | 
CCCN(C)C[C@H]1Oc2cc(/C=C/c3ccccc3)ccc2S(=O)(=O)N([C@H](C)CO)C[C@@H]1C | 1.02 ± 0.016 | 
Cc1noc(C)c1NC(=O)N(C)C[C@H]1Oc2ccc(NC(=O)CCCN(C)C)cc2C(=O)N([C@H](C)CO)C[C@H]1C | 0.975 ± 0.17 | 
